Substitutions are numbered along the chain they refer to. These are yes or no findings as the source states them, for the method shown. Some results given as binding are weak or reduced against the parent protein; the word gives no strength. For some assays here: Tags and fused reporters may be left off the sequences shown.
T1: rat CD137 on the cell surface (rat) (UniProt Q4W8J3)
T1 sequence: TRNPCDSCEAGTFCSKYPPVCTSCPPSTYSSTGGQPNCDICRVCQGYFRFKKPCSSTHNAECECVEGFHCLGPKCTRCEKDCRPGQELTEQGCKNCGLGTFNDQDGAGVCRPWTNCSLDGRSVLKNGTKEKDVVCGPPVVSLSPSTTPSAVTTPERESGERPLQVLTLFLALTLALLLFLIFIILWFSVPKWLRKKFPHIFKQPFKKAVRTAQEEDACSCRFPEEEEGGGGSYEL

By UniProt entry, the sequences of proteins in these tests, tags left out. Where a name states a change or a piece, a line headed by the entry shows the natural chain unless it says otherwise.
UniProt Q07011: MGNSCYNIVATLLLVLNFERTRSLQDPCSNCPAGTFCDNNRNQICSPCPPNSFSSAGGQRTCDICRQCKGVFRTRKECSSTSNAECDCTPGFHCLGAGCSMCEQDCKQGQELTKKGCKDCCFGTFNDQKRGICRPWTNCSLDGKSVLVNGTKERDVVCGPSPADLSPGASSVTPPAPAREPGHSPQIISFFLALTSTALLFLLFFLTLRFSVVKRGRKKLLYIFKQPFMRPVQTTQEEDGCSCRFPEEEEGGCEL

T2: mouse CD137 fused with human FC fragment (mouse) (UniProt P20334)
T2 sequence: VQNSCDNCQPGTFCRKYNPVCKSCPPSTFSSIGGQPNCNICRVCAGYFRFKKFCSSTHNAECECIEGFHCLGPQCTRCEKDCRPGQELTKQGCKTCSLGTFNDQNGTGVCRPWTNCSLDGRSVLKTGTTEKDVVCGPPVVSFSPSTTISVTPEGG

B1: AG10058 (antibody, human IgG4 S228P, kappa, V domains shown)
VH: EVQLVESGGGLVQPGGSLRLSCAASGFSLSTSGVGVGWIRQAPGKGLEWLALIDWDDDKYYSPSLKSRLTISRDNSKNTLYLQLNSLRAEDTAVYYCARGGSDTVLGDWFAYWGQGTLVTVSS
VL: DIQLTQSPSSLSASVGDRVTITCRASQSVSPYLAWYQQKPGKAPKLLIYDASSLESGVPSRFSGSGSGTDFTLTISSLQPEDFATYYCQQGYSLWTFGQGTKVEIKR
B2: AG10059 (antibody, human IgG4 S228P, kappa, V domains shown)
VH: EVQLVESGGGLVQPGGSLRLSCAASGYSITSGHYWAWIRQAPGKGLEWVSSISGYGSTTYYADSVKGRFTISRDNSKNTLYLQLNSLRAEDTAVYYCARGGSDAVLGDWFAYWGQGTLVTVSS
VL: B1 VL with S28G, V29I, S30G, P31S, Y32F, S53N, S56T, S93Y
B3: Fab 5310 (Fab, V domains shown)
VH: B1 VH
VL: B1 VL
B4: Fab 5365 (Fab, V domains shown)
VH: B1 VH with S32G, D56A, L106I
VL: B1 VL with V29I, S30G, P31S, S53N, S56T, S93Y

Columns and labels:
[1] = target: full-length human CD137 on the cell surface (human) (UniProt Q07011); experiment: flow cytometry
[2] = target: full-length human CD137 on the cell surface (human) (UniProt Q07011); experiment: summary of Example 4
[3] = target: full-length human CD137 on the cell surface (human) (UniProt Q07011); experiment: flow cytometry, HEK293F
[4] = target: T1, rat CD137 on the cell surface (rat); experiment: flow cytometry, HEK293F
[5] = target: full-length human CD137 on the cell surface (human) (UniProt Q07011); experiment: flow cytometry, HEK293F, 100 nM
[6] = target: Hu_CRD1-CRD2-CRD3 (human) (UniProt Q07011); experiment: flow cytometry, yeast display
[7] = target: full-length human CD137 on the cell surface (human) (UniProt Q07011); experiment: flow cytometry, yeast display
[8] = target: Hu_CRD1-CRD2-CRD3 (human) (UniProt Q07011); experiment: flow cytometry, yeast display [Cont.]
[9] = target: full-length human CD137 on the cell surface (human) (UniProt Q07011); experiment: flow cytometry, HEK293F cells expressing CD137
[10] = target: T1, rat CD137 on the cell surface (rat); experiment: flow cytometry, HEK293F cells expressing CD137 [Cont.]
[11] = target: full-length human CD137 on the cell surface (human) (UniProt Q07011); experiment: flow cytometry, HEK293F cells expressing CD137 or mutant [Cont.]
[12] = target: full-length human CD137 on the cell surface (human) (UniProt Q07011); experiment: flow cytometry, HEK293F cells expressing CD137, IgG 100 nM [Cont.]
[13] = target: full-length human CD137 on the cell surface (human) (UniProt Q07011); experiment: flow cytometry, PMA/ionomycin-activated human T cells, antibody 100 nM
[14] = target: full-length human CD137 on the cell surface (human) (UniProt Q07011); experiment: flow cytometry, HEK293F cells expressing the receptor, antibody 100 nM [Cont.]
[15] = target: T2, mouse CD137 fused with human FC fragment (mouse); experiment: ELISA, captured Fab, CD137-Fc
[16] = target: T2, mouse CD137 fused with human FC fragment (mouse); experiment: ELISA, Fab captured by anti-human IgG (Fab specific), CD137-Fc added, anti-human Fc-HRP

Binder	binding [1]	binding [2]	binding [3]	binding [4]	binding [5]	binding [6]	binding [7]	binding [8]	binding [9]	binding [10]	binding [11]	binding [12]	binding [13]	binding [14]	binding [15]	binding [16]
B1	binds	binds	binds	no binding	binds	binds	binds	binds	binds	no binding (tested: 100 nM (text paragraph 220))	binds	binds	binds	binds	–	–
B2	binds	–	binds	–	binds	binds	binds	binds	binds	–	binds	binds	binds	binds	–	–
B3	–	–	–	–	–	–	–	–	–	–	–	–	–	–	binds	binds
B4	–	–	–	–	–	–	–	–	–	–	–	–	–	–	binds	binds

Source: patent US20190055314A1
